The full ranking holds about 33,000 sequences; the median of “E-score (-0.5 to 0.5)” is about -0.021, and the highest 2% start at about 0.32. Some of the results follow.
Molecular target: T1, Zap1 (UniProt P47043)
T1 sequence: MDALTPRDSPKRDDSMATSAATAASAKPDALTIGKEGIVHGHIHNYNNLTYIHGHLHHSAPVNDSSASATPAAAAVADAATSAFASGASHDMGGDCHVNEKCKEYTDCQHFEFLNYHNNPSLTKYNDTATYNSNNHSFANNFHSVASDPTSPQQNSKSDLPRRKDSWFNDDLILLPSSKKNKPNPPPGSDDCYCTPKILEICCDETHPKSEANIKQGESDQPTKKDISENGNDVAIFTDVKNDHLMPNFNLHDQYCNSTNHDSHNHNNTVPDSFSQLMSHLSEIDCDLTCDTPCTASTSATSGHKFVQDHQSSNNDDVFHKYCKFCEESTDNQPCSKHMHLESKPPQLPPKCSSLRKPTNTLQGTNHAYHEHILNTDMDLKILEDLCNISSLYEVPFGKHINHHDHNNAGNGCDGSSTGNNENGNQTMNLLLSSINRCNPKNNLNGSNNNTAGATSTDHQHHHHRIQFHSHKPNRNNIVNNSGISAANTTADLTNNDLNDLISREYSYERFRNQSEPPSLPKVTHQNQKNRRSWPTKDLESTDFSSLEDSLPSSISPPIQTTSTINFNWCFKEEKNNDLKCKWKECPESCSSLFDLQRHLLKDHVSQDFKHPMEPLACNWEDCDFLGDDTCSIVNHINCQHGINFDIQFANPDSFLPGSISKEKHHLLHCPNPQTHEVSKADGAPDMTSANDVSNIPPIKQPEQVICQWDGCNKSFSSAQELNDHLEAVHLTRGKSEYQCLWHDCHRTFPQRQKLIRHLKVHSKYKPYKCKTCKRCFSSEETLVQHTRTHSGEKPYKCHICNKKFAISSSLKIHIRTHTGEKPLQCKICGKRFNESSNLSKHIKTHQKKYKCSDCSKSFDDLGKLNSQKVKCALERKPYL
Assay: PBM E-score (8-mer binding enrichment) (E-score (-0.5 to 0.5)); higher = stronger / more preferred TF binding; most listed sequences are background and not binding sites
Conditions: protein concentration: 200 nM; construct: GST-full length
Method: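 Universal 'all 10-mer' protein binding microarrays (Agilent AMADID 015681) probed with GST-tagged S. cerevisiae TFs (full-length or DBD) made by in vitro transcription/translation (PURExpress), about 100-200 nM. Bound TF was detected with fluorescent anti-GST. Each ungapped 8-mer (which stands for itself and its reverse complement) is scored by the PBM enrichment score (E-score), a modified Wilcoxon-Mann-Whitney statistic from -0.5 to +0.5, computed with the Universal PBM Analysis Suite. Scale: above 0.35 generally sequence-specific binding.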

Sequence	PBM E-score
CAACCTCA	0.0787
CGGAAGAA	-0.141
GCCCTTGA	0.00462
CTACTGCC	-0.244
CCCGCAAC	0.229
TAGATGAA	0.046
ACGCTAGT	-0.124
CGGTGGCC	0.104
CGGCAGGA	-0.219
GAGGCTAA	0.12
AAAAACTG	0.0294
GAGGTGCC	0.0135
GGGAATGA	0.0419
TACGACTA	0.147
ATCTATTG	0.0284
GCCACTTA	-0.108
AGACGCGG	0.0943
CCCCACTA	-0.131
CAGCATAC	-0.143
GCACCAAC	-0.00297
GCGCGACA	0.203
CAGAGCTC	-0.311
ACGGTTCA	-0.226
GAGTTACC	0.3
ACGGGCTC	-0.377

Sequence	PBM E-score
GAACCGTC	-0.144
AGGCACAA	-0.0273
AGAGATCT	-0.274
GATGTTCA	0.002
ACAAGTTG	-0.0793
GACGGTCC	-0.0199
CCGGAGCG	-0.218
AACAAACA	0.204
AAATTTAG	0.161
GCCAACGA	-0.0829
CAACGGGC	-0.196
CCTGCGTC	-0.217
CTGTTATA	0.115
ACGACGAG	-0.194
AAGCTATT	-0.138
GATTGTAA	0.054
AAACGGAG	-0.152
CAACTTAG	0.0448
CTACGCCA	-0.285
CCGAAGTC	-0.0936
GCACACCC	0.022
ACTACGCT	-0.189
TGCATCCA	-0.0336
TCAGGGCA	-0.001
TCTGTTAA	0.0669

Sequence	PBM E-score
ATTAGAAC	0.0615
ACATGAGA	0.141
AAACCCCT	0.188
AGCACGCA	-0.246
GGTAAGCA	0.0587
ACGGGTTG	0.158
ATGGGCGC	-0.206
AATCTGAG	-0.0252
CTTTAAAA	0.00534
GAGTATAC	-0.126
GTGCCCAA	-0.0175
ACGGTCTG	0.00115
CAATACGA	0.113
GCCTTGCC	-0.236
CAGCTACA	-0.143
GACTAAGC	-0.096
GGGACAAC	0.0321
ATTAAGTA	-0.0232
CGTTAATA	0.11
CGGTTAGC	0.151
TATGACAA	0.11
CAATCAGG	0.122
GCCGGCCC	-0.0753
CAAGCTTA	0.0952
GACTGTCC	-0.206

Sequence	PBM E-score
GGGAAAAC	-0.241
ATTGCAAA	0.167
ACCATTCG	0.0351
CGTAAGTC	-0.0622
ATTTGTTG	0.155
ACTAGTCT	-0.0426
AATGGAGA	-0.226
AGGCAAAG	-0.141
CGGTAGGA	-0.0778
GACCCTGC	0.283
AGGGATAA	0.0891
ATTCACGA	0.0347
GCCGCCGA	-0.12
GCACCGGC	0.0464
TACAAGTA	0.0103
ATCCTACG	-0.187
CGTGCCGA	-0.241
AGGGCGTA	0.00973
ATATCCAG	-0.0336
CCCACTTC	-0.107
ATCTACAT	-0.0783
GGGTACGA	0.0331
ATAGGGAG	-0.26
ATAATCCA	0.0492
AAACATAA	0.171

Sequence	PBM E-score
CCGGTCGA	-0.18
TAAACATA	0.159
AACCATGC	0.156
AGTTAAAC	0.0887
ACGGCCAG	-0.0756
AAAGTCAA	0.0202
GGCCCAAC	0.0448
CCGGAACA	-0.0587
ACCACATG	0.0314
GCTCTGAC	-0.21
TAAATGAA	0.0661
ACCCCGTC	-0.00633
ACTTAGGC	0.067
CTGCCAAC	-0.202
AGGGTTTC	0.232
GCTGTCAC	-0.137
CGGTTCCA	0.132
GATCACAC	-0.0542
CCCGGAGG	0.138
CACTCTAG	0.0467
CTGAAAAA	0.116
AGAACGGG	-0.147
ACAACGTA	-0.0475
ACACCGCC	0.0544
CCTTATTC	-0.0613

Sequence	PBM E-score
AAATCAAT	-0.0755
CGGCCCCG	-0.166
CTATCTAA	0.0707
GCAGGCAA	-0.144
AGTCCAGG	-0.167
CAACCGCG	0.282
AACAAGAT	0.0149
CGATGCAC	-0.186
ACAGGTAC	0.314
TATCAGGA	0.0231
AAATAGTT	0.165
AACGCGCC	-0.0616
CAAACATC	0.0154
GCGGACGC	-0.191
CCCATTGC	-0.0366
CTCGACTC	-0.204
GAAATTCC	-0.0737
ATGGTAAG	-0.124
ACCTACAA	0.178
CACCCTAA	0.369
GCGCTCAA	-0.223
GGATGGAC	-0.124
CATTCTGA	0.0941
ACAGTTCA	0.0211
ATCACTGC	-0.0971

Sequence	PBM E-score
CGCCTCCA	-0.0322
CTACCCGC	0.244
CCTCCCGA	-0.0955
GAACGATC	-0.0462
TCACTGGA	-0.0942
GTCTGTAA	0.173
CACGGCGG	-0.052
CTATACGA	-0.0396
ACCTATCA	0.0331
ACCTAGTA	-0.06
AAGATAAG	0.0849
TTCTGCAA	0.174
ATACGCAT	-0.00655
ATATGCTC	-0.22
CCTGGTCA	0.0679
CACGCATG	-0.13
AAGGCCCA	-0.0609
AGATCGTG	-0.0746
AATCATCT	-0.191
CCCCCAGC	-0.328
CATACCGA	-0.0604
AGACCTGC	-0.153

From the supplement of paper PMC3334620
